No constants are given. Whether binding was seen depends on the method and setting. In cells and extracts the contact can be indirect. Some entries that bind do so weakly or less than the wild type. Sequences can lack the tags named with a protein.
Tests used:
Test in all cases: co-IP; 293T cells transiently transfected with the indicated plasmids (5 µg each); lysed in 0.5% Triton X-100 buffer (20 mM Tris-HCl pH 7.5, 150 mM NaCl, 1 mM EDTA, 10% glycerol); anti-Flag or anti-HA antibody overnight at 4°C, protein A/G beads; immunoblot
DDX56 E167Q (human) = target: T1, DDX56 E167Q (human) (UniProt Q9NY93)
T1 sequence: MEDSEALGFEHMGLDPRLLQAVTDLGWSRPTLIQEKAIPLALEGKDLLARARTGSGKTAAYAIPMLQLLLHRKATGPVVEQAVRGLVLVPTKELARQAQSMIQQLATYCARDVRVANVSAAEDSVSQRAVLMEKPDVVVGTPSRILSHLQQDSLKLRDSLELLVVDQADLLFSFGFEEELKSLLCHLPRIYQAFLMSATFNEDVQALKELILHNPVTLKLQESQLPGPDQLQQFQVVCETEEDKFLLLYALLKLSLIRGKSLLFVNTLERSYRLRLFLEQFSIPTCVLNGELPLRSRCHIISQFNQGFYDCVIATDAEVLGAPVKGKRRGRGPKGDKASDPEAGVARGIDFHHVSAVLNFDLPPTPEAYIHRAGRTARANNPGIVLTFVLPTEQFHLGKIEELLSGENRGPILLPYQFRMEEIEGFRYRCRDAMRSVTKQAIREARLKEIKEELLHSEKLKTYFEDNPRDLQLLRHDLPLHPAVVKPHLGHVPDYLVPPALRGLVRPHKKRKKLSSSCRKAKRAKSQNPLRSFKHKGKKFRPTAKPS

[1] = target: T2, DDX56 (aa 191–547) (human) (UniProt Q9NY93)
T2 sequence: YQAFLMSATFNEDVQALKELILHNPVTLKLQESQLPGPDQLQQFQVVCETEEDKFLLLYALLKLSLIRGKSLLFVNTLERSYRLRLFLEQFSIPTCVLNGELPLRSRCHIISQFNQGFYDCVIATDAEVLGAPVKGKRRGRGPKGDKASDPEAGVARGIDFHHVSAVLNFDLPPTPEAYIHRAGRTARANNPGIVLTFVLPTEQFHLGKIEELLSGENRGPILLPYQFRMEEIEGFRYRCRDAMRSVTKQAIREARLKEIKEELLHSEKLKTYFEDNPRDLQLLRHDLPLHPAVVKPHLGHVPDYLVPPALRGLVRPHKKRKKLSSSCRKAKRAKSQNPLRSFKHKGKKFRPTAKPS

DDX56 (aa 1–190) (human) = target: T3, DDX56 (aa 1–190) (human) (UniProt Q9NY93)
T3 sequence: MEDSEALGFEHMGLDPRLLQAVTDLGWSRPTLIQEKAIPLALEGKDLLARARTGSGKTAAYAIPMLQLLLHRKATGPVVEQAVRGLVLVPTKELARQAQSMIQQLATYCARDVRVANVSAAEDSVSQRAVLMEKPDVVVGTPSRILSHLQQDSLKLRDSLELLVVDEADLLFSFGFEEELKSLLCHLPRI

DDX56 D166N (human) = target: T4, DDX56 D166N (human) (UniProt Q9NY93)
T4 sequence: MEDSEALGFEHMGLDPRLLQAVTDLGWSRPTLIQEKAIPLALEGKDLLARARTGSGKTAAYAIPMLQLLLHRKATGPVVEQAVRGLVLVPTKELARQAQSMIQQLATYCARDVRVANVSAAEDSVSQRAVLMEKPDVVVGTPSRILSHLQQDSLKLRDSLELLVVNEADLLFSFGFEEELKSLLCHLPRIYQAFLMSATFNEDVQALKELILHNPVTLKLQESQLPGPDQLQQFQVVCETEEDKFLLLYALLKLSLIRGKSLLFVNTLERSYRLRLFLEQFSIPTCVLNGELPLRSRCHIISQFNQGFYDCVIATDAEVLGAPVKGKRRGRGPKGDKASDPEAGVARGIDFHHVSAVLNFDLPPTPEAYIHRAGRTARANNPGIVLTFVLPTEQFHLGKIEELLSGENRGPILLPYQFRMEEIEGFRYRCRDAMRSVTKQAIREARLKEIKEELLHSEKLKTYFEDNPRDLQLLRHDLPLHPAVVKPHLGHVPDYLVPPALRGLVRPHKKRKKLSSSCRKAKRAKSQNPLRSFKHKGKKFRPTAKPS

[2] = target: T5, DEAD box polypeptide 56 (DDX56), Flag-tagged (human) (UniProt Q9NY93)
T5 sequence: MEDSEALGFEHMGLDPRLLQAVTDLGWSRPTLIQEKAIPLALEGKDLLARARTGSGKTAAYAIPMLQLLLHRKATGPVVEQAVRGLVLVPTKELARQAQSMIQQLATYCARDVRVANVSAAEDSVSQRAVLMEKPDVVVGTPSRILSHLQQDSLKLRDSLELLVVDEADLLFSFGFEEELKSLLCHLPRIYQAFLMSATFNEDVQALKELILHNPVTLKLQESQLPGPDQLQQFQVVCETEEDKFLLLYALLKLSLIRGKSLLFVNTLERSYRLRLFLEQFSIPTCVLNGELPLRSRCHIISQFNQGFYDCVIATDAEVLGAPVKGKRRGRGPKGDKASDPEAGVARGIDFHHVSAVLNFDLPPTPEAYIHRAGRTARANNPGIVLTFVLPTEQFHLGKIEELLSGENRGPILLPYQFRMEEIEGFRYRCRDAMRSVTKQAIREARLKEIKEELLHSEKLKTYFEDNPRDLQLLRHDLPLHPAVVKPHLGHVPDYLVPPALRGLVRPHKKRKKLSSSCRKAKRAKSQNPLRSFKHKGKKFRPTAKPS

binding (DDX56 E167Q (human)): binds
binding [1]: binds
binding (DDX56 (aa 1–190) (human)): binds
binding (DDX56 D166N (human)): no binding
binding [2]: binds
B1: Interferon-regulatory factor 3 (IRF3), HA-tagged (protein, UniProt Q14653 1-427)
chain: MGTPKPRILPWLVSQLDLGQLEGVAWVNKSRTRFRIPWKHGLRQDAQQEDFGIFQAWAEATGAYVPGRDKPDLPTWKRNFRSALNRKEGLRLAEDRSKDPHDPHKIYEFVNSGVGDFSQPDTSPDTNGGGSTSDTQEDILDELLGNMVLAPLPDPGPPSLAVAPEPCPQPLRSPSLDNPTPFPNLGPSENPLKRLLVPGEEWEFEVTAFYRGRQVFQQTISCPEGLRLVGSEVGDRTLPGWPVTLPDPGMSLTDRGVMSYVRHVLSCLGGGLALWRAGQWLWAQRLGHCHTYWAVSEELLPNSGHGPDGEVPKDKEGGVFDLGPFIVDLITFTEGSGRSPRYALWFCVGESWPQDQPWTKRLVMVKVVPTCLRALVEMARVGGASSLENTVDLHISNSHPLSLTSDQYKAYLQDLVEGMDFQGPGES

Reference: publication PMC6899003
